Consider 12 molecules from patent publication US20230250178A1 (published 2023).

For one assay, the target named is T1, cynomolgus CCR8 (cynomolgus, UniProt O97665 1-356 (rhesus entry)).
T1 construct: also called cynoCCR8; G7NYJ2_CCR8_MACFA
As to the kind of experiment: FACS, CHO-cynoCCR8.

Assay [1] concerns the target T2, human CCR8 (human, UniProt P51685 1-355).
T2 construct: also called hCCR8; P51685_CCR8_HUMAN
Briefly: FACS, CHO-hCCR8.

For assay [2], the target named is T2, human CCR8. Briefly: FACS, HuT78 (endogenous hCCR8).
The target of assay [3] is T2, human CCR8. Briefly: cell-based or functional assay.

Chain of cynomolgus CCR8 (O97665 other isoform, or with tags, fused parts or gaps): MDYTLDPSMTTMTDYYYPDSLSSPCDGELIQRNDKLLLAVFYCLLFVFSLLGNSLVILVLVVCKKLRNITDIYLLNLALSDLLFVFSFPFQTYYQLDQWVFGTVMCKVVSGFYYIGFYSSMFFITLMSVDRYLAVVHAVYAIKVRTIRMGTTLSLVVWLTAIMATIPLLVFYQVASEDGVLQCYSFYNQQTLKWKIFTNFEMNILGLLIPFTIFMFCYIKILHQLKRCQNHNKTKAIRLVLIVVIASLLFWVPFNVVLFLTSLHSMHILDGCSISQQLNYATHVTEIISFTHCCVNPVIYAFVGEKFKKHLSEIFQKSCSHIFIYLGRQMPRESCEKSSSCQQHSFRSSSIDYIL

B1: TPP-27496 (antibody, human IgG1, lambda)
heavy: EVQLLESGGGLVQPGGSLRLSCAASGFTFSSYGMHWVRQAPGKGLEWVSAINWNGGSTGYADSVKGRFTISRDNSKNTLYLQMNSLRAEDTAVYYCARGHHSGYDGRFFDYWGQGTLVTVSS[here human IgG1 constant region with changes without letters]
light: QSVLTQPPSVSGAPGQRVTISCTGSSSNIGAGYNVHWYQQLPGTAPKLLIYTNNRRPSGVPDRFSGSKSGTSASLAISGLRSEDEADYYCAAWDASLSGWVFGGGTKLTVLGQPKAAPSVTLFPPSSEELQANKATLVCLISDFYPGAVTVAWKADSSPVKAGVETTTPSKQSNNKYAASSYLSLTPEQWKSHRSYSCQVTHEGSTVEKTVAPTECS
modifications: 70% afucosylated
notes: also called TPP-27496 (LS); copies: 2 + 2
Consider B1, for which the EC50 with cynomolgus CCR8 stood at 0.455 nM.

B2: TPP-18430 (antibody, human IgG1, lambda)
heavy: EVQLLESGGGLVQPGGSLRLSCAASGFTFSHYGMHWVRQAPGKGLEWVSGINWNGGSTGYADSVKGRFTISRDNSKNTLYLQMNSLRAEDTAVYYCARGHHSGYDGRFFDYWGQGTLVTVSS[here human IgG1 constant region without letters]
light: QSVLTQPPSASGAPGQRVTISCTGSSSNIGAGYNVHWYQQLPGTAPKLLIYTNNRRPSGVPDRFSGSKSGTSASLAISGLRSEDEADYYCAAWDASLSGWVFGGGTKLTVLGQPKAAPSVTLFPPSSEELQANKATLVCLISDFYPGAVTVAWKADSSPVKAGVETTTPSKQSNNKYAASSYLSLTPEQWKSHRSYSCQVTHEGSTVEKTVAPTECS
notes: also called 18206-gl11-hIgG1Lambda; copies: 2 + 2
For the molecule B2, the EC50 with human CCR8 [1] came to 1.69 nM; in the assay with cynomolgus CCR8, 1.37 nM; in the assay with human CCR8 [2], 52.4 nM.

B3: TPP-27480 (antibody, human IgG1, lambda)
heavy: EVQLLESGGGLVQPGGSLRLSCAASGFTFSHYGMHWVRQAPGKGLEWVSAINWNGGSTGYADSVKGRFTISRDNSKNTLYLQMNSLRAEDTAVYYCARGHHSGYDGRFFDYWGQGTLVTVSS[here human IgG1 constant region without letters]
light: QSVLTQPPSVSGAPGQRVTISCTGSSSNIGAGYNVHWYQQLPGTAPKLLIYTNNRRPSGVPDRFSGSKSGTSASLAISGLRSEDEADYYCAAWDASLSGWVFGGGTKLTVLGQPKAAPSVTLFPPSSEELQANKATLVCLISDFYPGAVTVAWKADSSPVKAGVETTTPSKQSNNKYAASSYLSLTPEQWKSHRSYSCQVTHEGSTVEKTVAPTECS
notes: also called 18206-gl13-gl20-hIgG1Lambda; copies: 2 + 2
With B3, the EC50 was 1.14 nM in the assay with human CCR8 [1], 0.77 nM with cynomolgus CCR8 and 4.71 nM in the assay with human CCR8 [2].

B4: TPP-27479 (antibody, human IgG1, lambda)
heavy: EVQLLESGGGLVQPGGSLRLSCAASGFTFSSYGMHWVRQAPGKGLEWVSGINWNGGSTGYADSVKGRFTISRDNSKNTLYLQMNSLRAEDTAVYYCARGHHSGYDGRFFDYWGQGTLVTVSS[here human IgG1 constant region without letters]
light: QSVLTQPPSVSGAPGQRVTISCTGSSSNIGAGYNVHWYQQLPGTAPKLLIYTNNRRPSGVPDRFSGSKSGTSASLAISGLRSEDEADYYCAAWDASLSGWVFGGGTKLTVLGQPKAAPSVTLFPPSSEELQANKATLVCLISDFYPGAVTVAWKADSSPVKAGVETTTPSKQSNNKYAASSYLSLTPEQWKSHRSYSCQVTHEGSTVEKTVAPTECS
notes: also called 18206-gl13-gl14-hIgG1Lambda; copies: 2 + 2
For the molecule B4, the 50% effective concentration (EC50) with human CCR8 [1] came to 2.22 nM; with cynomolgus CCR8, 5.88 nM; in the assay with human CCR8 [2], 13.1 nM.

B5: TPP-18436 (antibody, human IgG1, lambda)
heavy: EVQLLESGGGLVQPGGSLRLSCAASGFTFSHYGMHWVRQAPGKGLEWVSAINWNGGSTGYADSVKGRFTISRDNSKNTLYLQMNSLRAEDTAVYYCARGHHSGYDGRFFDYWGQGTLVTVSS[here human IgG1 constant region without letters]
light: QSVLTQPPSASGTPGQRVTISCTGSSSNIGAGYNVHWYQQLPGTAPKLLIYTNNRRPSGVPDRFSGSKSGTSASLAISGLRSEDEADYYCAAWDASLSGWVFGGGTKLTVLGQPKAAPSVTLFPPSSEELQANKATLVCLISDFYPGAVTVAWKADSSPVKAGVETTTPSKQSNNKYAASSYLSLTPEQWKSHRSYSCQVTHEGSTVEKTVAPTECS
notes: VH G50A against TPP-18206; also called 18206-gl17-hIgG1Lambda; copies: 2 + 2
Consider B5, for which the EC50 came to 1.12 nM in the assay with human CCR8 [1], 0.442 nM with cynomolgus CCR8 and 3.76 nM with human CCR8 [2].

B6: TPP-18429 (antibody, human IgG1, lambda)
heavy: EVQLLESGGGLVQPGGSLRLSCAASGFTFSHYGMHWVRQAPGKGLEWVSGINWNGGSTGYADSVKGRFTISRDNSKNTLYLQMNSLRAEDTAVYYCARGHHSGYDGRFFDYWGQGTLVTVSS[here human IgG1 constant region without letters]
light: QSVLTQPPSVSGTPGQRVTISCTGSSSNIGAGYNVHWYQQLPGTAPKLLIYTNNRRPSGVPDRFSGSKSGTSASLAISGLRSEDEADYYCAAWDASLSGWVFGGGTKLTVLGQPKAAPSVTLFPPSSEELQANKATLVCLISDFYPGAVTVAWKADSSPVKAGVETTTPSKQSNNKYAASSYLSLTPEQWKSHRSYSCQVTHEGSTVEKTVAPTECS
notes: also called 18206-gl10-hIgG1Lambda; copies: 2 + 2
On to B6, for which the EC50 amounted to 1.48 nM with human CCR8 [1], 2.25 nM in the assay with cynomolgus CCR8 and 29.3 nM with human CCR8 [2].

B7: TPP-27477 (antibody, human IgG1, lambda)
heavy: EVQLLESGGGLVQPGGSLRLSCAASGFTFSSYGMHWVRQAPGKGLEWVSAINWNGGSTGYADSVKGRFTISRDNSKNTLYLQMNSLRAEDTAVYYCARGHHSGYDGRFFDYWGQGTLVTVSS[here human IgG1 constant region without letters]
light: QSVLTQPPSVSGTPGQRVTISCTGSSSNIGAGYNVHWYQQLPGTAPKLLIYTNNRRPSGVPDRFSGSKSGTSASLAISGLRSEDEADYYCAAWDASLSGWVFGGGTKLTVLGQPKAAPSVTLFPPSSEELQANKATLVCLISDFYPGAVTVAWKADSSPVKAGVETTTPSKQSNNKYAASSYLSLTPEQWKSHRSYSCQVTHEGSTVEKTVAPTECS
notes: also called 18206-gl10-gl25-hIgG1Lambda; copies: 2 + 2
B7: in the assay with cynomolgus CCR8, a half-maximal response (EC50) required 0.418 nM.

B8: TPP-27478 (antibody, human IgG1, lambda)
heavy: EVQLLESGGGLVQPGGSLRLSCAASGFTFSSYGMHWVRQAPGKGLEWVSAINWNGGSTGYADSVKGRFTISRDNSKNTLYLQMNSLRAEDTAVYYCARGHHSGYDGRFFDYWGQGTLVTVSS[here human IgG1 constant region without letters]
light: QSVLTQPPSASGAPGQRVTISCTGSSSNIGAGYNVHWYQQLPGTAPKLLIYTNNRRPSGVPDRFSGSKSGTSASLAISGLRSEDEADYYCAAWDASLSGWVFGGGTKLTVLGQPKAAPSVTLFPPSSEELQANKATLVCLISDFYPGAVTVAWKADSSPVKAGVETTTPSKQSNNKYAASSYLSLTPEQWKSHRSYSCQVTHEGSTVEKTVAPTECS
notes: also called 18206-gl11-gl25-hIgG1Lambda; copies: 2 + 2
In turn, B8 yielded an EC50 in the assay with cynomolgus CCR8 of 1.02 nM.

B9: TPP-18433 (antibody, human IgG1, lambda)
heavy: EVQLLESGGGLVQPGGSLRLSCAASGFTFSSYGMHWVRQAPGKGLEWVSGINWNGGSTGYADSVKGRFTISRDNSKNTLYLQMNSLRAEDTAVYYCARGHHSGYDGRFFDYWGQGTLVTVSS[here human IgG1 constant region without letters]
light: QSVLTQPPSASGTPGQRVTISCTGSSSNIGAGYNVHWYQQLPGTAPKLLIYTNNRRPSGVPDRFSGSKSGTSASLAISGLRSEDEADYYCAAWDASLSGWVFGGGTKLTVLGQPKAAPSVTLFPPSSEELQANKATLVCLISDFYPGAVTVAWKADSSPVKAGVETTTPSKQSNNKYAASSYLSLTPEQWKSHRSYSCQVTHEGSTVEKTVAPTECS
notes: also called 18206-gl14-hIgG1Lambda; copies: 2 + 2
Consider B9, for which the half-maximal effective concentration (EC50) with human CCR8 [1] was found to be 1.48 nM; with cynomolgus CCR8, 1.92 nM; with human CCR8 [2] it was 33 nM.

B10: TPP-18205 (antibody, human IgG1, lambda)
heavy: EVQLLESGGGLVQPGGSLRLSCAASGFTFSSYAMSWVRQAPGKGLEWVSGIRWNSGSKGYAGSVKGRFTISRDNSKNTLYLQMNSLRAEDTAVYYCVRSGNYYVGYHGMDVWGQGTLVTVSS[here human IgG1 constant region without letters]
light: QSVLTQPPSASGTPGQRVTISCSGGNSNIGTYFVSWYQQLPGTAPKLLIYTNNQRPSGVPDRFSGSKSGTSASLAISGLRSEDEADYYCETWDSNTRVFGGGTKLTVLGQPKAAPSVTLFPPSSEELQANKATLVCLISDFYPGAVTVAWKADSSPVKAGVETTTPSKQSNNKYAASSYLSLTPEQWKSHRSYSCQVTHEGSTVEKTVAPTECS
notes: also called 004-F10_497A-M296-L12 + 497A-M326-O09-hIgG1Lambda; copies: 2 + 2
For the molecule B10, the EC50 worked out at 8.33 nM with human CCR8 [1], 85.9 nM with cynomolgus CCR8 and 141 nM with human CCR8 [2]. Besides, the “IC50, Ca flux assay” value with human CCR8 [3] is 1.6 nM.

B11: TPP-17577 (antibody, human IgG1, lambda)
heavy: EVQLLESGGGLLQPGGSLRLSCAASGFTFSNAWMSWVRQAPGKGLEWVAVISYDGRNKYSADSVKGRFTISRDNSKNTLYLQMNSLRAEDTAVYYCARGLPYGYWGQGTLVTVSS[here human IgG1 constant region without letters]
light: QSVLTQPPSASGTPGQRVTISCSGSSSNIGSNTVNWYQQLPGTAPKLLIYRNNQRPSGVPDRFSGSKSGTSASLAISGLRSEDEADYYCAAWDDSLKALVFGGGTKLTVLGQPKAAPSVTLFPPSSEELQANKATLVCLISDFYPGAVTVAWKADSSPVKAGVETTTPSKQSNNKYAASSYLSLTPEQWKSHRSYSCQVTHEGSTVEKTVAPTECS
notes: also called 497A-M178-K09-1-hIgG1Lambda; copies: 2 + 2
As for B11, the EC50 with human CCR8 [1] came out at 11.1 nM; in the assay with cynomolgus CCR8, 9.81 nM. In the assay with human CCR8 [3], the “IC50, Ca flux assay” value came out at 93.8 nM.

B12: TPP-21047 (antibody, human IgG1, lambda)
heavy: EVQLLESGGGLVQPGGSLRLSCAASGFTFSSAWMSWVRQAPGKGLEWVSGISWSGGRTGYALSVKGRFTISRDNSKNTLYLQMNSLRAEDTAVYYCARTYSGHYGPYFDYWGQGTLVTVSS[here human IgG1 constant region without letters]
light: QSVLTQPPSASGTPGQRVTISCSGSSSNIGSHTVNWYQQLPGTAPKLLIYRNNQRPSGVPDRFSGSKSGTSASLAISGLRSEDEADYYCAAWDDSLNGWVFGGGTKLTVLGQPKAAPSVTLFPPSSEELQANKATLVCLISDFYPGAVTVAWKADSSPVKAGVETTTPSKQSNNKYAASSYLSLTPEQWKSHRSYSCQVTHEGSTVEKTVAPTECS
notes: also called 17578-gl81-hIgG1-wt-Lambda; copies: 2 + 2
For the molecule B12, the EC50 with human CCR8 [1] came out at 2.56 nM; with cynomolgus CCR8 it was 0.377 nM; with human CCR8 [2], 5.02 nM.
